Results published in the supplement of paper PMC12217912.
The list shows a part of the results. Sequences were assembled here from the parent chain. Inactive controls read about 0.05.

B1: TEV protease; numbered along this chain (parent)
chain: MGESLFKGPRDYNPISSSICHLTNESDGHTTSLYGIGFGPFIITNKHLFRRNNGTLVVQSLHGVFKVKDTTTLQQHLVDGRDMIIIRMPKDFPPFPQKLKFREPQREERICLVTTNFQTKSMSSMVSDTSCTFPSGDGIFWKHWIQTKDGQCGSPLVSTRDGFIVGIHSASNFTNTNNYFTSVPKNFMELLTNQEAQQWVSGWRLNADSVLWGGHKVFMVKPEEPFQPVKEATQL

Variants of: B1
Assay: raw area under fraction-flipped curve 0-4 h after induction (AUC4h, not background-subtracted), DNA-recorder readout of cleavage of the substrate (dimensionless); higher = more cleavage of the substrate by the protease variant
Conditions: temperature: 34 °C; time window: 0-4 h after rhamnose induction
Experimental: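 In vivo DNA recorder in E. coli TOP10(DE3) ΔrhaA at 34 °C. Each TEVp single-site mutant (parent TEVp 0) is paired with a single-site variant of the 7-mer TEVs (canonical ENLYFQ|S). The substrate sits between flexible linkers in a Bxb1-sfGFP-TEVs-SsrA fusion, so cleavage stabilises Bxb1 and speeds flipping of a recombination array, read by NGS. The value is the raw area under the fraction-flipped curve over 0-4 h after rhamnose induction (AUC4h), with ≥20 reads per time point. It is not background-subtracted; inactive controls average about 0.047.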
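Also: Bxb1 expression induced with 0.2% (w/v) L-rhamnose at OD600 near 0.5, cultures sampled hourly, flipped fraction per protease–substrate barcode pair counted by paired-end Illumina sequencing.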

Variant | area with substrate ENAYFQS | area with substrate ENEYFQS | area with substrate ENFYFQS | area with substrate ENGYFQS | area with substrate ENHYFQS | area with substrate ENKYFQS | area with substrate ENNYFQS | area with substrate ENQYFQS | area with substrate ENRYFQS | area with substrate ENSYFQS | area with substrate ENTYFQS | area with substrate ENVYFQS | area with substrate ENWYFQS | area with substrate ENCYFQS | area with substrate ENDYFQS | area with substrate ENMYFQS | area with substrate ENYYFQS | area with substrate ENIYFQS | area with substrate ENPYFQS
MGESLFKGPRDYNPISSSICHLTNESDGHTTSLYGIGFGPFIITNKHLFRRNNGTLVVQSLHGVFKVKDTTTLQQHLVDGRDMIIIRMPKDFPPFPQKLKFREPQREERICLVTTNFQTKSMSSMVSDTSCTFPSGDGIFWKCWIQTKDGQCGSPLVSTRDGFIVGIHSASNFTNTNNYFTSVPKNFMELLTNQEAQQWVSGWRLNADSVLWGGHKVFMVKPEEPFQPVKEATQL [H143C] | 0.0634 | 0.0499 | 0.0669 | 0.035 | 0.0651 | 0.0639 | 0.0451 | 0.0593 | 0.0768 | 0.0591 | 0.0687 | 0.0638 | 0.0354 |  |  |  |  |  | 
MGESLFKGPRDYNPISSSICHLTNESDGHTTSLYGIGFGPFIITNKHLFRRNNGTLVVQSLHGVFKVKDTTTLQQHLVDGRDMIIIRMPKDFPPFPQKLKFREPQREERICLVTTNFQTKSMSSMVSDTSCTFPSGDGIFWKPWIQTKDGQCGSPLVSTRDGFIVGIHSASNFTNTNNYFTSVPKNFMELLTNQEAQQWVSGWRLNADSVLWGGHKVFMVKPEEPFQPVKEATQL [H143P] | 0.0485 | 0.0524 | 0.0753 | 0.0571 | 0.0414 |  |  | 0.0567 | 0.0522 | 0.0525 | 0.0629 | 0.047 | 0.0508 | 0.059 | 0.0718 | 0.0617 | 0.0607 |  | 
MGESLFKGPRDYNPISSSICHLTNESDGHTTSLYGIGFGPFIITNKHLFRRNNGTLVVQSLHGVFKVKDTTTLQQHLVDGRDMIIIRMPKDFPPFPQKLKFREPQREERICLVTTNFQTKSMSSMVSDTSCTFPSGDGIFWKRWIQTKDGQCGSPLVSTRDGFIVGIHSASNFTNTNNYFTSVPKNFMELLTNQEAQQWVSGWRLNADSVLWGGHKVFMVKPEEPFQPVKEATQL [H143R] | 0.0437 | 0.0641 | 0.0616 |  | 0.0677 | 0.0617 | 0.0553 | 0.0674 | 0.0528 | 0.0577 | 0.0621 | 0.0607 | 0.0079 | 0.0772 | 0.0653 | 0.0567 | 0.0594 |  | 
MGESLFKGPRDYNPISSSICHLTNESDGHTTSLYGIGFGPFIITNKHLFRRNNGTLVVQSLHGVFKVKDTTTLQQHLVDGRDMIIIRMPKDFPPFPQKLKFREPQREERICLVTTNFQTKSMSSMVSDTSCTFPSGDGIFWKHWFQTKDGQCGSPLVSTRDGFIVGIHSASNFTNTNNYFTSVPKNFMELLTNQEAQQWVSGWRLNADSVLWGGHKVFMVKPEEPFQPVKEATQL [I145F] | 0.0352 | 0.0563 | 0.0742 |  | 0.0574 |  | 0.0631 | 0.0527 |  | 0.0619 |  |  |  | 0.0627 |  |  | 0.0371 | 0.0912 | 0.0539
MGESLFKGPRDYNPISSSICHLTNESDGHTTSLYGIGFGPFIITNKHLFRRNNGTLVVQSLHGVFKVKDTTTLQQHLVDGRDMIIIRMPKDFPPFPQKLKFREPQREERICLVTTNFQTKSMSSMVSDTSCTFPSGDGIFWKHWIRTKDGQCGSPLVSTRDGFIVGIHSASNFTNTNNYFTSVPKNFMELLTNQEAQQWVSGWRLNADSVLWGGHKVFMVKPEEPFQPVKEATQL [Q146R] | 0.0503 |  | 0.057 |  | 0.0772 | 0.0667 | 0.0714 | 0.0558 | 0.0684 | 0.0572 | 0.0779 |  |  | 0.0674 | 0.0538 | 0.0661 | 0.0658 |  | 0.0396
MGESLFKGPRDYNPISSSICHLTNESDGHTTSLYGIGFGPFIITNKHLFRRNNGTLVVQSLHGVFKVKDTTTLQQHLVDGRDMIIIRMPKDFPPFPQKLKFREPQREERICLVTTNFQTKSMSSMVSDTSCTFPSGDGIFWKHWIQEKDGQCGSPLVSTRDGFIVGIHSASNFTNTNNYFTSVPKNFMELLTNQEAQQWVSGWRLNADSVLWGGHKVFMVKPEEPFQPVKEATQL [T147E] | 0.0593 | 0.0726 | 0.0534 | 0.0628 | 0.0499 | 0.0764 | 0.0573 | 0.0584 | 0.0626 | 0.0592 | 0.0467 | 0.0573 | 0.0044 | 0.0569 | 0.065 | 0.0791 | 0.0454 | 0.0657 | 
MGESLFKGPRDYNPISSSICHLTNESDGHTTSLYGIGFGPFIITNKHLFRRNNGTLVVQSLHGVFKVKDTTTLQQHLVDGRDMIIIRMPKDFPPFPQKLKFREPQREERICLVTTNFQTKSMSSMVSDTSCTFPSGDGIFWKHWIQNKDGQCGSPLVSTRDGFIVGIHSASNFTNTNNYFTSVPKNFMELLTNQEAQQWVSGWRLNADSVLWGGHKVFMVKPEEPFQPVKEATQL [T147N] | 0.056 | 0.0802 | 0.0694 |  | 0.0568 |  | 0.079 | 0.061 | 0.0593 | 0.0615 | 0.0604 | 0.0624 | 0.0571 | 0.0537 | 0.0555 | 0.0493 |  |  | 0.0657
MGESLFKGPRDYNPISSSICHLTNESDGHTTSLYGIGFGPFIITNKHLFRRNNGTLVVQSLHGVFKVKDTTTLQQHLVDGRDMIIIRMPKDFPPFPQKLKFREPQREERICLVTTNFQTKSMSSMVSDTSCTFPSGDGIFWKHWIQTGDGQCGSPLVSTRDGFIVGIHSASNFTNTNNYFTSVPKNFMELLTNQEAQQWVSGWRLNADSVLWGGHKVFMVKPEEPFQPVKEATQL [K148G] | 0.0686 | 0.066 | 0.0524 | 0.0671 | 0.0667 | 0.0654 | 0.0702 | 0.0673 | 0.0558 | 0.0641 | 0.065 | 0.071 | 0.0608 |  | 0.0635 |  | 0.0448 |  | 0.065
